# Measured values taken from PMC4336329 (PLoS ONE, 2015).
# In all, about 310,000 compounds went through this assay and about 14,000 (4.5%) showed an effect of 50% or more. Effects have a minus sign here. This is one part of the list.
# Biological target: human ether-à-go-go-related gene (hERG) potassium channel (human, UniProt Q12809)
# Assay: primary screen, population patch clamp on CHO cells stably expressing hERG
# 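Further: peak tail current of the secondary pulse compared with the same well before compound.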
# human ether-à-go-go-related gene (hERG) potassium channel, sequence (Q12809 whole entry, looked up): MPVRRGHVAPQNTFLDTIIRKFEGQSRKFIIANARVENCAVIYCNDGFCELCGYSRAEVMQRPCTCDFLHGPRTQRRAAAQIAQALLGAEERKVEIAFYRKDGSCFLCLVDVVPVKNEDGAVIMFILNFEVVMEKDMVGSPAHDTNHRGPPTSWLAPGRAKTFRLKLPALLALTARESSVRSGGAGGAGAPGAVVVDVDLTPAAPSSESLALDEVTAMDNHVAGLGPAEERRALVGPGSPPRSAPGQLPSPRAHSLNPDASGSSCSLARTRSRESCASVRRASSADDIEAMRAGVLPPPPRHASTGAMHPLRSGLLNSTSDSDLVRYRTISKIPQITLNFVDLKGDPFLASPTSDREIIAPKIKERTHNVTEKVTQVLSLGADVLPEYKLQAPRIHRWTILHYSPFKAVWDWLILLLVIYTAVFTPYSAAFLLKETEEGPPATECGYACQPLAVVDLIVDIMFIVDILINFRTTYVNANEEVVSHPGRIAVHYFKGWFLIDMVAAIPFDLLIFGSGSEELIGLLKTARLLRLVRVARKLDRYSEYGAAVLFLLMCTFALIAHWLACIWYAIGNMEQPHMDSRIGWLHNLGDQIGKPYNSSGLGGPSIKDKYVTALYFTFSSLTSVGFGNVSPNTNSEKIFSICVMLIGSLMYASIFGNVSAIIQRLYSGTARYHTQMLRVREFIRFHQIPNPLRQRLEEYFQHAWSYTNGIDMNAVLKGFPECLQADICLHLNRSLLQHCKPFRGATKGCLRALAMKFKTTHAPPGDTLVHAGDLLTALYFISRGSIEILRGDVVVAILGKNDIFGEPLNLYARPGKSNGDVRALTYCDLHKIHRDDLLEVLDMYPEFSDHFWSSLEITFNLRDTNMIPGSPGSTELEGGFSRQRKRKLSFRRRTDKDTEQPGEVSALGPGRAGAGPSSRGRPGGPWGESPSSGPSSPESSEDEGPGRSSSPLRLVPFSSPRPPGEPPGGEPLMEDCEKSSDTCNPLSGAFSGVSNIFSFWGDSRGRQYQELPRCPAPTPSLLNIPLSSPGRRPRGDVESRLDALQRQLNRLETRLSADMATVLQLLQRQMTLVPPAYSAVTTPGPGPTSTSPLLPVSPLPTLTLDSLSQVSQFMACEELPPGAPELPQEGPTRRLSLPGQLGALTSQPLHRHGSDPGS
row,Compound,"hERG current change (%, negative = inhibition) at 10uM"
1,COc1ccc(C(=O)NCCCN2CCCC2=O)cc1,3.54%
2,Cc1scc(C(=O)N/N=C/c2ccc([N+](=O)[O-])o2)c1C,15.4%
3,CC1=CC(C)(C)Nc2ccc(OC(=O)CCN3C(=O)c4ccccc4C3=O)cc21,0.14%
4,CCNS(=O)(=O)c1ccc(NC(=O)Nc2cccc(OC)c2)cc1,8.01%
5,COc1cc(C(=O)OC(C)CN2CCN(C)CC2)cc(OC)c1OC.Cl (centres unmarked),-6.51%
6,Cc1ccc(F)c(CNC(=O)C2CCC(=O)N(CCCN3CCCC3=O)C2)c1F (centres unmarked),15%
7,C=CCn1c(CCNC(=O)c2cccs2)nnc1SCC(=O)c1ccc(Cl)cc1,-38.5%
8,N=c1c2c3c(sc2ncn1Cc1ccco1)CCCCC3,-62%
9,COc1cccc(CN2CCN(C(=O)C3CCC(=O)N(C4CCCC4)C3)CC2)c1 (centres unmarked),3.17%
10,N#CCC(=O)Nc1ccc(C(F)(F)F)cc1N1CCOCC1,-1.13%
11,CCOC(=O)c1sc(NC(=O)C2CC(=O)N(c3ccccc3C)C2)nc1C (centres unmarked),-6.31%
12,COc1ccc(CN(C(=O)CNC(=O)c2ccco2)C(C(=O)NCC2CCCO2)c2ccccc2)cc1 (centres unmarked),-6.44%
13,Cc1cc2nc(N)sc2cc1[N+](=O)[O-],-0.00632%
14,CCc1ccccc1N1C(=O)[C@@H]2Cc3ccccc3CN2C1=O,5%
15,Cc1ccc(S(=O)(=O)NCCCCCC(=O)Nc2c(C)n(C)n(-c3ccccc3)c2=O)cc1,55.7%
16,CCOc1ccc(CN(C)CC(=O)NCc2ccc(F)cc2)cc1,-74%
17,Cc1snc(S(=O)(=O)/C(C#N)=N\Nc2ccccc2)c1C#N,8.45%
18,CC(C)(C)OC(=O)NCC1CCN(S(=O)(=O)Cc2ccccc2)CC1,13.8%
19,COc1ccc(OC)c(NC2c3ccccc3C(=O)N2c2cccnc2)c1 (centres unmarked),-7.07%
20,O=S(=O)(NC1CC(NS(=O)(=O)OCC(Cl)(Cl)Cl)C2CCCCC12)OCC(Cl)(Cl)Cl (centres unmarked),1.91%
21,CCC(C)NC(=O)CNC(=S)N(Cc1ccccc1F)C1CCCCC1 (centres unmarked),24.9%
22,Cn1cccc1Cc1nnc(SCC(=O)N2CCc3ccccc32)n1CCc1ccccc1,-11.3%
23,Cc1ccc(CSc2nnc(Nc3ccc(C)cc3)s2)cc1,18%

row,Compound,"hERG current change (%, negative = inhibition) at 10uM"
1,N#CCCN1CCN(S(=O)(=O)c2ccc3c(c2)OCCCO3)CC1.O=C(O)C(=O)O,13.6%
2,Cc1nn(C(=O)c2nn(C)cc2Cl)c(C)c1Br,-6.27%
3,Cn1nnnc1SCc1csc(Nc2ccccc2)n1,-1.01%
4,CC(=O)C1=C(C)NC(SCC(=O)c2ccc(Cl)cc2)=C(C#N)C1c1ccco1 (centres unmarked),10.4%
5,Cc1cccc(OCC(=O)NCCNC(=O)c2ccco2)c1,-19%
6,COc1ccc(Br)cc1CN1CCN(C(=O)c2cccc(OC)c2OC)CC1.O=C(O)C(=O)O,0.939%
7,O=C(NCC(=O)N(Cc1ccc(F)cc1)C(C(=O)NC1CCCC1)c1ccco1)c1ccco1 (centres unmarked),-20.3%
8,COc1cccc(CNC(=O)C2CCN(S(=O)(=O)c3ccc(Br)s3)CC2)c1,-18.2%
9,O=C(/C=C/c1cccc(F)c1)OCC(=O)N1CCCc2ccccc21,-27.6%
10,CC(C#CCN1CCCCC1)OCCOCc1ccccc1.Cl (centres unmarked),6.25%
11,CCn1c(CNC(=O)c2cccc(C)c2)nnc1SCC(=O)Nc1cccc(OC)c1,-27.6%
12,Cc1ccc(C(=O)NCC(=O)NCC(=O)OCC(=O)c2ccc(Br)cc2)cc1,7.3%
13,Cc1nnc(SCC(=O)NNC(=O)c2ccco2)s1,-21.4%
14,C/C(=N\NC(=S)NC(C)C)c1ccc2c(c1)OCCO2,-63.6%
15,COc1ccc(-n2cnnc2SCC(=O)NCc2cccs2)cc1,-10.1%
16,O=C(N1CCCCCC1)N1CCN(S(=O)(=O)N2CCCCC2)CC1,-4.84%
17,Cc1ccsc1C(=O)NCC(=O)OCc1ccccc1,1.22%
18,COC(=O)c1c(C(=O)OC)c2n(c1C)Cc1ccccc1C2,-11.2%
19,NS(=O)(=O)c1cccc(C(=O)NC2CCSc3ccccc32)c1 (centres unmarked),7.91%
20,O=C(NNC(=O)c1sc2ccccc2c1Cl)Nc1ccc(Cl)cc1,-8.47%
21,Nn1c(SCC(=O)Nc2ccccc2F)nnc1-c1cccs1,-65.7%
22,CC(Nc1ccc2c(c1)OCCO2)C(=O)N1c2ccccc2CC1C (centres unmarked),-3.16%
23,COC(=O)c1cc(NS(=O)(=O)c2ccc(C(C)C)cc2)ccc1N1CCOCC1,-24.9%

row,Compound,"hERG current change (%, negative = inhibition) at 10uM"
1,Cl.OC(c1cc(C(F)(F)F)nc2c(C(F)(F)F)cccc12)C1CCCCN1 (centres unmarked),-12.4%
2,O=C(NC1CCN(Cc2ccccc2)CC1)c1cn(-c2ccccc2)nc1-c1cccnc1,-68%
3,Cn1cc(CN2CCN(CCc3ccccc3)C(CCO)C2)cn1 (centres unmarked),4.52%
4,CSc1cccc(NC(=O)C(C)C)c1,8.44%
5,O=c1[nH]c(-c2ccccn2)nc2ccccc12,-3.46%
6,CCCc1c(C)c2ccc(OCC(C)=O)cc2oc1=O,-12%
7,CC(Sc1nnc(-c2ccc(OC(F)F)cc2)n1N)C(=O)NCC1CCCO1 (centres unmarked),-24.2%
8,O=C(c1ccc([N+](=O)[O-])cc1)N1CCN(C(=O)c2ccco2)CC1,-47.4%
9,CN(C)c1ccc(-c2noc(C3CCN(S(=O)(=O)c4cccc(Cl)c4)CC3)n2)cc1,13%
10,CCCc1nnc(NC(=O)CCC(=O)N2CCN(Cc3cc(F)ccc3OC)CC2)s1,-11.3%
11,COc1cc([C@@H]2c3cc4c(cc3[C@@H](OC)[C@H]3COC(=O)[C@H]23)OCO4)cc(OC)c1O,9.75%
12,Cc1ccc(NC(=O)CSc2nc3ccccc3c3nc4ccccc4n23)cc1,7.99%
13,O=C(Nc1ccc(S(=O)(=O)Nc2ncccn2)cc1)c1cccc(Br)c1,16.5%
14,CCOC(=O)c1sc(NC(=O)CSc2nnc(C)s2)c(C(=O)OCC)c1C,-13.2%
15,COc1ccc([N+](=O)[O-])cc1NCc1ccccc1C,-7.14%
16,CC(=O)Oc1cccc(C(=O)Nc2cccc(C(=O)Nc3ccccc3C(=O)O)c2)c1,13.7%
17,Clc1ccc(-c2nnc3ccccn23)cc1,-17.9%
18,CCOc1cc(C(=O)Nc2nnc(S(=O)(=O)N3CCOCC3)s2)cc(OCC)c1OCC,12.3%
19,CCCCN(CCCC)c1nc(OC)nc(-n2nnc(C(C)=O)c2C)n1,-33.5%
20,Cc1c(C)n(CC(O)CN2C(=O)c3ccccc3S2(=O)=O)c2ccccc12 (centres unmarked),3.51%
21,Cc1cc(NC(=O)c2ccc3c(c2)OCO3)no1,22.6%
22,CCN(CC(=O)NCc1ccc(F)cc1)C(=O)CN1CCN(c2cc(Cl)ccc2C)CC1,-73.1%
23,Cc1nc([N+](=O)[O-])c(Br)n1CC(=O)c1cccc([N+](=O)[O-])c1,-34.3%

row,Compound,"hERG current change (%, negative = inhibition) at 10uM"
1,N#Cc1c(-c2ccccc2)nc(N2CCCCCC2)[nH]c1=O,1.47%
2,N#CCSCC(=O)Nc1ccccc1,7.73%
3,C=CCC(=O)OCC(=O)Nc1ccc(Cl)cn1,-0.252%
4,NC(=O)CC(NC(=O)c1cccc(Br)c1)c1ccc(NC2CCC2)c([N+](=O)[O-])c1 (centres unmarked),-59.8%
5,CCOC(=O)c1ccccc1NC(=O)COC(=O)CSCC(=O)Nc1cc(C)on1,-7.39%
6,COc1ccc(-c2noc(CSc3nnc(Cc4ccccc4)n3-c3ccc(Cl)cc3)n2)cc1,3.09%
7,COc1cccc(/C=C2\N=C(C3CCCCC3)OC2=O)c1OC,0.531%
8,Cc1ccccc1C(=O)Nc1ccc2c(c1)C(=O)NC2=O,8.29%
9,CCC(=O)N1CCN(c2ccc(NC(=O)c3ccc(N4CCOCC4)c([N+](=O)[O-])c3)cc2)CC1,5.66%
10,O=C(Nc1ccncc1)Nc1cc(Cl)ccc1Cl,19.1%
11,Cc1ccc(S(=O)(=O)N(C(=O)c2ccncc2)c2ccc(OC(=O)c3ccncc3)c3ccccc23)cc1,-4.48%
12,CCCC1=Nc2cc(C(=O)NCCCOC(C)C)ccc2Sc2ccccc21,-0.286%
13,CSc1nc(-c2ccccc2F)c(C#N)c(=O)n1C,-35.3%
14,O=C(N/N=C/C1CC2C=CC1C2)c1ccccc1O (centres unmarked),0.131%
15,Cn1c(CSc2ncccn2)nnc1SCC(=O)N1CCCC1,28.7%
16,CC(=O)N1CCN(C(=O)c2cc(-c3ccc(C)o3)nc3ccccc23)CC1,-10.1%
17,COc1cc2ccccc2cc1C(=O)N1CCCC1,7.7%
18,COc1ccc(C)cc1NC(=O)C(Sc1nncn1C)c1ccccc1 (centres unmarked),-3.91%
19,COc1ccc(NC2CCCN(C(=O)CCCn3cncn3)C2)cc1 (centres unmarked),9.05%
20,COc1ccccc1NC1(C#N)CCCCC1,12.8%
